The text below walks through data of article PMC4336329 (PLoS ONE, 2015).

The whole screen tested about 310,000 compounds, of which about 2,200 (0.71%) showed an effect of 50% or more. The effect is printed as a negative number. This is one part of the list.

In this test the target is human ether-à-go-go-related gene (hERG) potassium channel (human, UniProt Q12809). Nature of the test: primary screen, population patch clamp on CHO cells stably expressing hERG.
Sequence of human ether-à-go-go-related gene (hERG) potassium channel (Q12809 whole entry, looked up): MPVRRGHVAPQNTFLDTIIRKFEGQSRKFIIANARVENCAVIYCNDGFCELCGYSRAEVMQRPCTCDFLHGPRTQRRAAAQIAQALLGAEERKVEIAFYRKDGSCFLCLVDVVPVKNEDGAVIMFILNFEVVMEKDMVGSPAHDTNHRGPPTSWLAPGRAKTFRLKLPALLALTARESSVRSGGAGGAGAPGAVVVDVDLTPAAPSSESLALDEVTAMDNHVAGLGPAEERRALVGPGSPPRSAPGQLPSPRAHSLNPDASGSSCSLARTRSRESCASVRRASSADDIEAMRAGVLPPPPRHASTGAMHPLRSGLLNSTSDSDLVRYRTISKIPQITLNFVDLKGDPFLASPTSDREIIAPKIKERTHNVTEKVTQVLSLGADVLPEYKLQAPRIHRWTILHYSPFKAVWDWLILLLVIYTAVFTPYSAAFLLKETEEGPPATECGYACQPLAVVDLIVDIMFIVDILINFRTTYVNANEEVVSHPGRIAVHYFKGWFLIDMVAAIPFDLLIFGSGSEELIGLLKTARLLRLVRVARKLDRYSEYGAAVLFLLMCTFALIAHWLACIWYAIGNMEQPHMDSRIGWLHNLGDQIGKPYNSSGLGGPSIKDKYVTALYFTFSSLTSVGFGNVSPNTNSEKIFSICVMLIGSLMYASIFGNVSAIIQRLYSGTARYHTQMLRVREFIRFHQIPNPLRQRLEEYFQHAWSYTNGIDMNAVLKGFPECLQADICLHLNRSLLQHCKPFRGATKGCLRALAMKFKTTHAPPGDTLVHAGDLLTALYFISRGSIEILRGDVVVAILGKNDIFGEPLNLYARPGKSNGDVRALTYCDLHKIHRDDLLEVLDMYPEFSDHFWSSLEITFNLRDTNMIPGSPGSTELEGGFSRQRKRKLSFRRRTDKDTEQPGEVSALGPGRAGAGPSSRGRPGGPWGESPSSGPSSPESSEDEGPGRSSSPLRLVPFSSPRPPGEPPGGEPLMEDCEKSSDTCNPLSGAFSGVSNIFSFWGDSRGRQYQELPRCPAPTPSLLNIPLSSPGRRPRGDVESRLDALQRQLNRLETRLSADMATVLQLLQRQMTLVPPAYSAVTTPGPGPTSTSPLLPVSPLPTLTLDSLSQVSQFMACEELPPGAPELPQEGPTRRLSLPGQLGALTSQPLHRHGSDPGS
As for `N#Cc1cc2c(nc1SCC(=O)N1CCCCC1)CCCC2`, the “hERG current change (%, negative = inhibition) at 1uM” value amounted to 13.3%.

For `O=C1NC(=O)N(Cc2ccco2)C(=O)/C1=C\c1cccn1CCOc1ccc(Cl)cc1`, the “hERG current change (%, negative = inhibition) at 1uM” value is recorded as 13.9%. For `O=C(COC(=O)COc1ccccc1[N+](=O)[O-])Nc1cccc(Br)c1` the value was 17.8%; for `O=C(C1Cc2ccccc2CN1S(=O)(=O)c1cccs1)N1CCCCCC1` (stereo not shown), 11.7%; for `Cn1c(=O)c2c(nc(N/N=C/c3ccc(OC(=O)c4ccco4)cc3)n2Cc2ccccc2)n(C)c1=O`, 2.03%.

With `COc1ccc(CNC(=O)COc2ccc(Br)c(C)c2)cc1`, the “hERG current change (%, negative = inhibition) at 1uM” value amounted to 6.54%. For the compound `Cc1ccc(NS(=O)(=O)c2ccc(C(=O)N3CCOCC3)cc2)cc1`, the “hERG current change (%, negative = inhibition) at 1uM” value is 11.8%. With `COc1ccccc1CNC(=O)OCc1nccnc1C(=O)Nc1ccc(Br)cn1` the figure was -7.05%; with `Cc1ccc(NC(=O)Cn2c(=O)cnc3ccccc32)cc1S(=O)(=O)N(C)C`, -2.24%. With `COc1ccc([C@H]2CC(=O)C=C(c3ccccc3OC)C2)cc1OC` the figure was 10.7%; with `Cc1sc(-c2ccncc2)nc1OC(=O)c1cc(Cl)cc(Cl)c1`, 5.48%; with `CC(C)N1CCC(N2CCN(C/C=C/c3ccccc3)CC2CCO)CC1` (stereo not shown), 12.2%. With `COc1ccc(OC)c(NC(=O)CSc2nc(=O)n(Cc3ccccn3)c3c2CCC3)c1` the figure was -2.43%; with `OCC1OC(n2nc3ccccc3n2)C(O)C(O)C1O` (stereo not shown), 12%.

As to `Cc1cc(C)n(CCCC(=O)O)n1`, the “hERG current change (%, negative = inhibition) at 1uM” value came out at 17.7%. With `Cc1ccc(C)c(NC(=O)CN(C)C(=O)c2ccc(S(=O)(=O)N3CCCCCC3)cc2)c1` the figure was 11.3%; with `Cc1oc2ccc(OCc3ccc(Cl)cc3)cc2c1C(=O)O`, 10.4%. For `COc1cc2c(cc1OC)C(C)N(S(=O)(=O)c1cn(C)c(C)n1)CC2` (stereo not shown) the value was 10.4%; for `C=CCn1c(=O)/c(=C/c2ccc(Cl)cc2)s/c1=C(/C#N)c1nnc2n1CCCCC2`, 6.08%; for `CCCCCOC(=O)C1=C(C)NC(=O)NC1c1ccccc1OCC` (stereo not shown), -2.12%. With `O=C(CSc1nnc(-c2ccccc2NC(=O)c2ccccc2)o1)OC1CCCCC1` the figure was -15.7%; with `Cc1cccc(C)c1NC(=O)CN(C)C(=O)/C=C/c1cccs1`, 10.5%. Consider `COc1ccc(CC(=O)NC2CCCc3ccccc32)cc1` (stereo not shown), for which the “hERG current change (%, negative = inhibition) at 1uM” value stood at 9.44%. For `COc1ccc(/C(O)=C2/C(=O)C(=O)N(CCCN3CCOCC3)C2c2ccc(OC)cc2)cc1` (stereo not shown) the value was 21.1%.

With `COC(=O)C1(CCSC)NC(c2ccc(O)cc2)C2C(=O)N(c3ccc(F)cc3)C(=O)C21` (stereo not shown), the “hERG current change (%, negative = inhibition) at 1uM” value came out at 0.164%.

In the case of `CC1(C)CC2(CC(c3ccccc3F)c3cc(Cl)c(O)cc3O2)NC(=S)N1` (stereo not shown), the “hERG current change (%, negative = inhibition) at 1uM” value was found to be 13.7%. With `COC(=O)c1oc2ccccc2c1NC(=O)c1ccccc1O` the figure was 16.2%; with `O=C(NCc1ccc(Cl)cc1)C(=O)c1cn(CC(=O)N2CCOCC2)c2ccccc12`, 23.8%. For `Cc1ccc(S(=O)(=O)N(CCCO)Cc2cc3c(C)ccc(C)c3[nH]c2=O)cc1` the value was -6.63%; for `CCOC(=O)C1=C(CN2CCOCC2)NC(=O)NC1c1cc(C)ccc1C` (stereo not shown), 7.88%. `CCC(=O)c1ccc(OCC(=O)N2CCN(S(=O)(=O)c3ccc(Cl)s3)CC2)cc1`: the “hERG current change (%, negative = inhibition) at 1uM” value is listed as -1.74%.

Regarding `O=C(/C=C/c1cc(Br)ccc1O)c1ccco1`, the “hERG current change (%, negative = inhibition) at 1uM” value came out at 13.5%.

For `Cc1c(C(=O)Nc2nnc(C3CC3)s2)oc2c(Cl)cccc12`, the “hERG current change (%, negative = inhibition) at 1uM” value amounted to 12.5%. With `O=C(c1ccco1)N1CCN(C(=O)N2CCOCC2)CC1` the figure was -2.46%; with `Clc1ccc(SCc2cn3ccccc3n2)cc1`, 13.1%.

`N/C(=N\OC(=O)c1cccnc1)c1ccccc1Cl`: the “hERG current change (%, negative = inhibition) at 1uM” value is given as 16.4%. In the case of `CCNc1nc(NCC)n2c(SCC(=O)Nc3ccc(C)c(C)c3)nnc2n1`, the “hERG current change (%, negative = inhibition) at 1uM” value is reported as 1.74%. For `Cc1ccc(-c2nc(CS(=O)CC(=O)N3CCN(c4ccccc4)CC3)c(C)o2)cc1` (stereo not shown) the value was 6.49%. With `Cn1cc(Cl)c(C(=O)NNC(=S)NC2CCCCC2)n1` the figure was 5.04%. For the compound `O=S(=O)(c1ccc(Br)c2ccccc12)N1CCOCC1`, the “hERG current change (%, negative = inhibition) at 1uM” value is 14.4%.

For the compound `CCc1cccc(C)c1NC(=S)NCC1CCN(c2ccc(OC)cc2)C1` (stereo not shown), the “hERG current change (%, negative = inhibition) at 1uM” value worked out at 6.21%. As for `O=C1CSC(c2ccccc2[N+](=O)[O-])N1c1ccccc1` (stereo not shown), the “hERG current change (%, negative = inhibition) at 1uM” value is listed as 16.2%. For `C/C(=N\NC(=S)NC1CCCCC1)c1ccc(C)o1` the value was 8.3%; for `CCOC(OCC)P(=O)(c1ccccc1)c1ccccc1`, 0.434%. For `CCCCCC(C)NC(=O)CN1C(=O)NC(C)(c2ccc3ccccc3c2)C1=O` (stereo not shown) the value was 13.7%. Take `CCc1ccccc1NC(=O)CSc1nnc(CNC(=O)c2ccco2)n1C`: the “hERG current change (%, negative = inhibition) at 1uM” value came to 13%. As for `CC(=O)NCCNc1ccc([N+](=O)[O-])cn1`, the “hERG current change (%, negative = inhibition) at 1uM” value was 6.56%.

Take `COc1ccc(Cc2c(O)nc(SCC(=O)NC34CC5CC(CC(C5)C3)C4)[nH]c2=O)cc1`: the “hERG current change (%, negative = inhibition) at 1uM” value came to 15.3%. With `COc1ccc(N(CC(=O)N2CCCCCC2)S(=O)(=O)c2ccc(OC)c(OC)c2)cc1` the figure was 8.15%. For `CC1CCCCC1NC(=O)CSCC(=O)O` (stereo not shown) the value was 7.14%; for `Cc1nn(Cc2ccccc2Cl)c(Cl)c1/C=C/C(=O)OCC(=O)NC1CCS(=O)(=O)C1` (stereo not shown), 15.3%; for `CS(=O)(=O)c1ccc2nc(NC(NC(=O)c3ccco3)(C(F)(F)F)C(F)(F)F)sc2c1`, -10.8%. For `O=C(CC1COc2ccccc2O1)NCc1ccccc1` (stereo not shown) the value was -9.82%. `CCOC(=O)N1CCN(C(=O)C2CC(=O)N(c3ccc(C)cc3)C2)CC1` (stereo not shown): the “hERG current change (%, negative = inhibition) at 1uM” value is listed as -18.5%. For `CN(CCc1nc2ccccc2[nH]1)Cc1nc(CC2CC2)no1` the value was 6.57%; for `Cc1onc(-c2ccccc2)c1C(=O)N(Cc1ccccn1)Cc1ccccn1`, -2.84%; for `Cn1cc([N+](=O)[O-])c(C(=O)NCc2ccccc2)n1`, 11.1%. Consider `CCOC(=O)Cn1nnnc1C(CC)N(Cc1cccs1)Cc1cc2ccc(OC)cc2[nH]c1=O` (stereo not shown), for which the “hERG current change (%, negative = inhibition) at 1uM” value is recorded as -6.95%. For `O=C(Cn1cc(SCc2ccccc2Cl)c2ccccc21)N1CCOCC1` the value was 4.12%; for `CCOc1ccc(-c2nc(C#N)c(N3CCN(C)CC3)o2)cc1`, -2.87%; for `Cc1csc(NC(=O)c2cc(-c3ccccc3)nc3ccccc23)n1`, -3.23%. As to `COc1ccc(-n2nc(C(=O)NCC(=O)N3CCN(Cc4ccccc4)CC3)c3ccccc3c2=O)c(OC)c1`, the “hERG current change (%, negative = inhibition) at 1uM” value is 4.15%. With `Cc1ccc(Nc2ccc3nonc3c2[N+](=O)[O-])cc1` the figure was 3.43%. As to `Cc1ccc(NCc2n[nH]c(=S)n2-c2ccccc2)cc1Cl`, the “hERG current change (%, negative = inhibition) at 1uM” value was found to be 6.19%. For `CC(=O)Nc1ccc(S(=O)(=O)N2CCN=C2SCc2ccc([N+](=O)[O-])cc2)cc1` the value was -4.86%; for `C/C(CC(=O)Nc1ccc(OCc2ccccc2)cc1)=N\NC(=O)C(=O)Nc1ccccc1C`, 12%; for `CC(C)N1C(=O)N(c2ccc(Cl)cc2)C(C)(O)CC1(C)C` (stereo not shown), 13.3%.

In the case of `Cc1cc(N2CCOCC2)n2cc(-c3ccc(F)cc3)nc2n1`, the “hERG current change (%, negative = inhibition) at 1uM” value is -34.9%. As to `CCOC(=O)c1ccc(Nc2cc(C)nc3nc(C)nn23)cc1`, the “hERG current change (%, negative = inhibition) at 1uM” value was -24.3%. Regarding `Cc1ccccc1-c1nnc(SCC(=O)NC2CCCCC2)o1`, the “hERG current change (%, negative = inhibition) at 1uM” value is listed as 7.02%.

As for `COC(=O)/C=C1\S/C(=N/NC(=O)c2ccc(OC)cc2)NC1=O`, the “hERG current change (%, negative = inhibition) at 1uM” value was 14.4%. For `CCOc1ccc(Br)cc1S(=O)(=O)Nc1ccc(NC(=O)c2ccccc2F)cc1` the value was 8.75%; for `CC(C)(C)N(NC(=O)Nc1ccc(Cl)cc1)C(=O)c1ccccc1`, -0.642%; for `O=C(NC1CCCC1)C1CC(=O)N(c2ccccc2)C1` (stereo not shown), 19.8%. For `COC(=O)c1sc2ccccc2c1N` the value was 5.18%. For `O=C(CSc1nnc(NC(=O)c2c(F)cccc2F)s1)NC1CCCC1` the value was 13.2%; for `C#CCOC(=O)/C(=C/c1ccc(F)cc1)NC(C)=O`, -1.96%.

`O=C1CN(C(=O)c2ccc(Cl)c([N+](=O)[O-])c2)c2ccccc2N1`: the “hERG current change (%, negative = inhibition) at 1uM” value turned out to be 13.2%.

In the case of `Cc1ccc2c(c1)NC(=O)C(CC(=O)NCCCN1CCCC1=O)O2` (stereo not shown), the “hERG current change (%, negative = inhibition) at 1uM” value is recorded as 9.03%. For `CSc1nnc(SCC(=O)N(C)c2c(N)n(Cc3ccccc3)c(=O)[nH]c2=O)s1`, the “hERG current change (%, negative = inhibition) at 1uM” value amounted to 12.4%. For the compound `CCOC(=O)CN(C(=O)CSc1nnc(CNc2ccc(F)cc2)o1)c1ccccc1`, the “hERG current change (%, negative = inhibition) at 1uM” value stood at 7.53%. With `Cc1nc2ccccc2c(=O)n1C1CCCCCC1` the figure was 2.13%; with `Cc1[nH]n(-c2ccccc2)c(=O)c1N=Nc1ccccc1C(=O)N1CCCCC1`, 20.3%; with `CCN(CC)S(=O)(=O)c1ccc(/C=C/C(=O)OCC(=O)Nc2cccc3ccccc23)cc1`, 13.3%. With `CCOC(=O)c1sc(Nc2nc(OC)cc(OC)n2)nc1C` the figure was 7.92%. With `CSc1nc(SCC(=O)NCC2CCCO2)c2c3c(sc2n1)CN(C)CC3` (stereo not shown) the figure was 12.3%; with `CCN(CC)c1ccc(C(=O)N/N=C(\C)c2cccnc2)cc1`, 1.72%. On to `Cc1csc2nc(O)c(C(=O)NC3CCCCCC3)c(=O)n12`, for which the “hERG current change (%, negative = inhibition) at 1uM” value is listed as 18.7%.
